# Reference: PubChem BioAssay AID686979 (National Center for Advancing Translational Sciences (NCATS), 2013)
# About 50,000 (12%) of roughly 420,000 compounds were called active. The inconclusive results got no clear call from the source; some entries with a clear call stand among them for comparison. Calls come from the whole dose curve; as a rule, active = well fitted inhibition curve with a large enough effect; inconclusive = small, poorly fitted or top-dose-only effect; inactive = flat fitted curve, though single readings scatter. Potencies of inconclusive entries are left out as doubtful fits.
# Assay: qHTS for Inhibitors of human tyrosyl-DNA phosphodiesterase 1 (TDP1): qHTS in cells in presence of CPT; note: nearly all actives have a fitted effect of over 55% in size
# Conditions: chicken DT40 Tdp1-/-;hTDP1 cells + 20 nM CPT, ATP luminescence, 48 h; activity change, negative = growth inhibition: at 46.2 µM (top of the series)
# Summary of the method: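 Chicken DT40 Tdp1-/- cells stably complemented with human TDP1 were seeded at 400 cells/well in medium containing 20 nM camptothecin, exposed to pin-transferred compounds, and grown at 37 °C for at least 48 hr. Viability was read as ATP luminescence.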
# % is set by controls: 0 for no effect and ±100 for the full control effect; potency is the fitted concentration of half-maximal effect; tags give direction and shape of the fitted curve.
Structure (SMILES),Potency,"activity change, negative = growth inhibition"
Cc1ccccc1N1CCN(C2CCCN(C(=O)c3cnsn3)C2)CC1 (stereo unspecified),"inconclusive [inhibitor, single point]",
CCOC(=O)c1c(C)c(-c2ccccc2)n(CC(=O)NCc2cccc(OC)c2)c1C,"inconclusive [inhibitor, single point]",
COc1cc2nc(N3CCCN(C)CC3)nc(NC3CCOCC3)c2cc1OC,active: 11.2 µM,
CC(C)CNC(=O)c1cccc2c(-c3ccc(F)c(F)c3)coc12,"inconclusive [inhibitor, single point]",
O=C(Nc1ccc(Cl)cc1)C1=Cc2ccccc2OC1,"inconclusive [inhibitor, partial curve]",
O=C(NCCCN=C1NS(=O)(=O)c2ccccc21)c1ccc(S(=O)(=O)N2CCCCC2)cc1,"inconclusive [inhibitor, single point]",
CCOC(=O)c1c(NC(=O)COC(=O)c2cccnc2OCC)sc(C(=O)N(CC)CC)c1C,"inconclusive [inhibitor, single point]",
Cc1cccc(N2CCN(Cc3ccc([N+](=O)[O-])o3)CC2)c1C,inactive,
O=C(Cn1nc(-c2ccccc2)ccc1=O)Nc1ccc(-n2cnnn2)cc1,"inconclusive [inhibitor, single point]",
Cc1ccc(-n2nc3c(=O)n(CCCC(=O)NCc4ccccc4C)nc(C)c3c2C)cc1,active: 20.6 µM,
Cc1cccc(-c2nc3scc(CCNS(=O)(=O)c4c(C)noc4C)n3n2)c1,"inconclusive [inhibitor, single point]",
O=C(NCc1ccccn1)c1cccc(S(=O)(=O)N2CCc3ccccc32)c1,"inconclusive [inhibitor, single point]",
Cc1ccc(F)cc1NC(=O)CCc1c(C)nn(-c2ccc(N3CCCC3)nn2)c1C,"inconclusive [inhibitor, single point]",
C[C@@H]1NS(=O)(=O)[C@H]2C[C@@H]3C=C[C@]2(O3)[C@H]1OC(=O)c1ccc(C(C)(C)C)cc1,active: 23.1 µM,
CCC(Sc1nnc(C)n2c1cc1sccc12)C(=O)Nc1ccccc1F (stereo unspecified),"inconclusive [inhibitor, single point]",
COc1ccc(N2C(=O)CC(c3ccccc3)CC2=O)cc1,inactive,
O=C(CCN1C(=O)c2ccccc2S1(=O)=O)N1CCN(c2cccc(Cl)c2)CC1,"inconclusive [inhibitor, single point]",
CCCn1cc(CN2CCCC(C(=O)c3cccc(OC(C)C)c3)C2)c(C)n1 (stereo unspecified),"inconclusive [inhibitor, single point]",
CCOC(=O)C1CCCN(C(=O)c2cncc(Br)c2)C1 (stereo unspecified),inactive,
CN(C)c1cccc(C(=O)Nc2nnc(Cc3ccccc3)s2)c1,"inconclusive [inhibitor, single point]",
COc1cc(C(=O)N2CCC2(C)C(=O)O)cc(OC)c1OC (stereo unspecified),inactive,
CC(C)c1nc(SCC(=O)N2CCCCC2)c2c(=O)n(C)c(=O)n(C)c2n1,"inconclusive [inhibitor, single point]",
CC(C)(C)c1ccc(C(=O)NC(=S)NNC(=O)c2cccs2)cc1,active: 23.1 µM,

Structure (SMILES),Potency,"activity change, negative = growth inhibition"
Cc1cc(C(C)(C)C)ccc1OCCN(C)C,inactive,
Cc1cc(=S)[nH]c2ccccc12,"inconclusive [inhibitor, single point]",
CC(=O)c1ccc(NC(=O)Cn2cnc3nc4c(cc3c2=O)CC(C)CC4)cc1 (stereo unspecified),inactive,
CCOc1cccc(C2c3[nH]c4ccccc4c3CCN2C(=O)c2ccccc2F)c1 (stereo unspecified),"inconclusive [inhibitor, single point]",
Cc1ccc(S(=O)(=O)N2CCOCC2)cc1NC(=O)COc1cccc(Oc2ccccc2)c1,"inconclusive [inhibitor, partial curve]",
COCCn1c(=O)[nH]c2cc(C(=O)N3CCN(c4cccc(C(F)(F)F)c4)CC3)ccc2c1=O,active: 20.6 µM,
CCOC(=O)c1c(C)[nH]c(C)c1S(=O)(=O)NCc1cc(C)ccc1C,inactive,
Cc1ccccc1CN1CCN(c2ccc(S(=O)(=O)N3CCCC3)cn2)CC1,"inconclusive [inhibitor, single point]",
O=C1/C(=C\c2ccc([N+](=O)[O-])cc2)CS(=O)(=O)C/C1=C/c1ccc([N+](=O)[O-])cc1,active: 0.0259 µM,
COc1cc(OC)c(S(=O)(=O)NCc2cccnc2)cc1NC(C)=O,inactive,
Cc1cccc(C(=O)OC(C)C(=O)Nc2ccc(S(=O)(=O)N3CCCC3)cc2)c1O (stereo unspecified),"inconclusive [inhibitor, single point]",
O=C1NCCC/C1=N\Nc1ccc(Br)cc1,inactive,
N#C/C(=C\c1cc2ccccc2nc1N1CCCCC1)C(N)=O,"inconclusive [inhibitor, single point]",
CCOC(=O)c1cnc2cc(C(F)(F)F)ccc2c1N1CCN(c2cccc(Cl)c2)CC1,"inconclusive [inhibitor, single point]",
Fc1ccc(Cn2nnnc2CN2CCN(C3CCCC3)CC2)cc1,,inconclusive: -30.4% [inhibitor]
NS(=O)(=O)c1ccc(NC(=O)CN2CCCc3ccccc32)cc1,inactive,
CN(CC(=O)Nc1ccccc1Br)C(=O)c1ccccc1Cc1ccccc1,"inconclusive [inhibitor, single point]",
Cc1occc1C(=O)Nc1ccc([N+](=O)[O-])cc1Br,active: 1.3 µM,
COc1ccc(S(=O)(=O)n2nc(-c3ccco3)nc2NCc2ccc(N(C)C)cc2)cc1,"inconclusive [inhibitor, single point]",
O=C(NCCn1ccc2ccccc21)c1cccc([N+](=O)[O-])c1,active: 29.1 µM,
CNc1ccc(/C=C(\C#N)c2ccccn2)cc1[N+](=O)[O-],inactive,
Cc1cc(SCc2cccc(Cl)c2)nc(=O)[nH]1,inactive,
Cc1ccc(CNC(=O)N2CCC(CN3CCC(C)CC3)CC2)cc1,inactive,
